# Source: PubChem BioAssay AID206 (DTP/NCI, 2004)
# Results filed as inconclusive are left out. A number of entries come with more than one value. Only these are listed. The source may hold further records. The values listed for one entry differ for a reason that is not stated; some may be repeats, others may stem from another dose, organism or construct than stated.
# Tested on: nude mice, HT29 intrarenal xenograft, tumor weight T/C
# Assay: NCI In Vivo Anticancer Drug Screen. Data for tumor model HT29;CX-1 Human Adenocarcinoma (MER+) (intrarenal inoculation) in NU/NU Swiss (nude) mice
# Conditions: endpoint: mean tumor weight change, higher = larger tumour
# Experimental: The antitumor activity of compounds was measured in mice bearing transplantable tumors. Survival or tumor size were measured and the results are expressed as the measurement made in the treated group (T) divided by the measurement made in the vehicle treated control group (C). The tumor model used in this assay is HT29;CX-1 Human Adenocarcinoma (MER+) (intrarenal inoculation) in NU/NU Swiss (nude) mice
# [1] = dose: 400.0 mg/kg/injection, schedule: Q01DX010 (sc), vehicle: Klucel (hydroxypropylcellulose) (HPC)
structure (smiles),measurement,setting,value
Cn1c(=O)[nH]c2nncnc2c1=O,T/C,"dose: 30.0 mg/kg/injection, schedule: Q04DX004 (sc), vehicle: water",94 % of control and 120 % of control
CCCCCCCCCCCCCCCCS(=O)CC(O)COC(=O)c1ccc(C(=O)OCC(O)CS(=O)CCCCCCCCCCCCCCCC)cc1 (configuration not stated),T/C,"dose: 100.0 mg/kg/injection, schedule: Q01DX010 (sc), vehicle: saline + Tween-80 + alcohol",72 % of control and 244 % of control
same,T/C,"dose: 200.0 mg/kg/injection, schedule: Q01DX010 (sc), vehicle: saline + Tween-80 + alcohol",52 % of control and 178 % of control
C=C(NC(=O)C(=C)NC(=O)c1csc(C2=NC3c4csc(n4)C4NC(=O)c5csc(n5)C(C(C)(O)C(C)O)NC(=O)C5CSC(=N5)/C(=C/C)NC(=O)C(C(C)O)NC(=O)c5csc(n5)C3(CC2)NC(=O)C(C)NC(=O)C(=C)NC(=O)C(C)NC(=O)C(C(C)CC)NC2C=Cc3c(C(C)O)cc(nc3C2O)C(=O)OC4C)n1)C(N)=O (configuration not stated),T/C,[1],68 % of control and 152 % of control
same,T/C,"dose: 1600.0 mg/kg/injection, schedule: Q01DX010 (sc), vehicle: Klucel (hydroxypropylcellulose) (HPC)",13 % of control and 52 % of control
CC(C)CCCCCCCCCCCCC(=O)NCC(=O)NC1C(O)C(O)C(Nc2ncnc3nc[nH]c23)OC1C(O)CO (configuration not stated),T/C,"dose: 0.4 mg/kg/injection, schedule: Q01DX010 (sc), vehicle: saline",47 % of control and 111 % of control
same,T/C,"dose: 1.6 mg/kg/injection, schedule: Q01DX010 (sc), vehicle: saline",-21 % of control and 24 % of control
COc1cccc2c1C(=O)c1c(O)c3c(c(O)c1C2=O)C[C@@](O)(/C(C)=N/NC(=O)c1ccc(Cl)cc1)C[C@@H]3OC1CC(N)C(O)C(C)O1 (some centres not stated),T/C,"dose: 40.0 mg/kg/injection, schedule: Q04DX004 (sc), vehicle: water",28 % of control and 85 % of control
COC1C(O)C(C)OC(OC2C(Oc3cccc4c(O)c5c(=O)oc6ccc(C)c7c(=O)oc(c34)c5c67)OC(C)C(O)C2O)C1O (configuration not stated),T/C,"dose: 100.0 mg/kg/injection, schedule: Q01DX010 (sc), vehicle: Klucel (hydroxypropylcellulose) (HPC)","24 % of control, 59 % of control, 75 % of control"
same,T/C,"dose: 200.0 mg/kg/injection, schedule: Q01DX010 (sc), vehicle: Klucel (hydroxypropylcellulose) (HPC)","30 % of control, 42 % of control, 61 % of control"
same,T/C,[1],"19 % of control, 47 % of control, 50 % of control"
S=C=NCCc1ccccc1,T/C,"dose: 50.0 mg/kg/injection, schedule: Q01DX010 (sc), vehicle: saline with Tween-80","31 % of control, 39 % of control, 75 % of control"
same,T/C,"dose: 200.0 mg/kg/injection, schedule: Q01DX010 (sc), vehicle: saline with Tween-80",6 % of control and 51 % of control
COC1C(O)CC(OC2CC(OC3CC(O[C@@H]4C(=O)c5c(cc6cc(OC7CC(OC8CC(O)C(O)C(C)O8)C(O)C(C)O7)c(C)c(O)c6c5O)C[C@H]4[C@H](OC)C(=O)[C@@H](O)[C@@H](C)O)OC(C)C3O)OC(C)C2O)OC1C (some centres not stated),T/C,"dose: 3.0 mg/kg/injection, schedule: Q01DX010 (sc), vehicle: saline","-39 % of control, 9 % of control, 48 % of control"
same,T/C,"dose: 6.0 mg/kg/injection, schedule: Q01DX010 (sc), vehicle: saline",-74 % of control and -42 % of control
CC1(C)COCN1COC1CCCCC1,T/C,"dose: 200.0 mg/kg/injection, schedule: Q04DX004 (sc), vehicle: saline",17 % of control and 74 % of control
same,T/C,"dose: 400.0 mg/kg/injection, schedule: Q04DX004 (sc), vehicle: saline",55 % of control and 111 % of control
same,T/C,"dose: 800.0 mg/kg/injection, schedule: Q04DX004 (sc), vehicle: saline",33 % of control and 94 % of control
CC(=O)c1c(O)c(C)c(O)c2c1OC1=CC(=O)C(C(C)=O)C(=O)C12C (configuration not stated),T/C,"dose: 100.0 mg/kg/injection, schedule: Q01DX010 (sc), vehicle: sodium bicarbonate","52 % of control, 58 % of control, 114 % of control"
same,T/C,"dose: 200.0 mg/kg/injection, schedule: Q01DX010 (sc), vehicle: sodium bicarbonate","17 % of control, 60 % of control, 75 % of control"
same,T/C,"dose: 400.0 mg/kg/injection, schedule: Q01DX010 (sc), vehicle: sodium bicarbonate","-6 % of control, 44 % of control, 97 % of control"
CC(C)NC(=O)OCc1c(COC(=O)NC(C)C)c(-c2ccc(Cl)c(Cl)c2)n2c1CCC2,T/C,"dose: 100.0 mg/kg/injection, schedule: Q01DX010 (sc), vehicle: distilled water + Tween-80","46 % of control, 64 % of control, 106 % of control"
